Assay results as given in PubChem BioAssay AID1159614 (National Center for Advancing Translational Sciences (NCATS), 2016).
The whole screen tested about 45,000 compounds, of which about 65 (0.1%) were called active. The call rests on the fitted dose curve; in most records, active means well fitted activation curve with a large enough effect; inconclusive means small, poorly fitted or top-dose-only effect; inactive means no such curve, though single readings can be large or run the other way. This is one part of the list.

Each compound was assayed against Galactocerebrosidase (Homo sapiens) (UniProt P54803) (assay: A Novel Cell-Based Assay to Identify Small Molecules for B -Galactocerebrosidase). Details: 145M-Twi-hGALC-G270D cells (Twitcher mouse brain line with human GALC G270D), HMU-beta-Gal fluorescence, 48 h; series mostly up to 57.5 µM; activation: at the top concentration.
Outline: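 Mutant human GALC (G270D), stably expressed in a Twitcher mouse brain cell line lacking endogenous GALC, is measured in live-treated cells via 6-hexadecanoylamino-4-methylumbelliferyl-β-galactoside hydrolysis (0.1 mM final, pH 5.2) with fluorescent detection.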
Further: 0% is about no effect; nearly all actives have a fitted effect of over 65% in size.

UniProt P54803, sequence (P54803 whole entry, looked up): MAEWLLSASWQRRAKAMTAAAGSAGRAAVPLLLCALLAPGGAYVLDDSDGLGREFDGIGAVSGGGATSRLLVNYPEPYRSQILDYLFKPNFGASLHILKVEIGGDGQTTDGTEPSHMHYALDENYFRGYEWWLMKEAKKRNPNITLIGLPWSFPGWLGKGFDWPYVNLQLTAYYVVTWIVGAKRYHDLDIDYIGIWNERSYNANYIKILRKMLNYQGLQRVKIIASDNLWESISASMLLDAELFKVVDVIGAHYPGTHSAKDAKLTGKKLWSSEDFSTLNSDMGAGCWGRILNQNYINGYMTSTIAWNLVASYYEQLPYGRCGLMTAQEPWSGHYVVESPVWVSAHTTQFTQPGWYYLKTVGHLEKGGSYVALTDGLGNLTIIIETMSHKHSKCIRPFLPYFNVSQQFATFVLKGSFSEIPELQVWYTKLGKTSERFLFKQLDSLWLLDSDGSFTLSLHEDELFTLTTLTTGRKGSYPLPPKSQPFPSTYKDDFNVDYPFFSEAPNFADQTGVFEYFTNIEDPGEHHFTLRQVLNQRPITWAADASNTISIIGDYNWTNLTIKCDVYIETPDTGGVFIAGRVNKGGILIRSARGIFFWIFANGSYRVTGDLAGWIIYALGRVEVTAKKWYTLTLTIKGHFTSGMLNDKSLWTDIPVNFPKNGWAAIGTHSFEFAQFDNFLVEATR

activation, inactive:
O=C(Nc1ccc(Cl)cc1F)c1cc(S(=O)(=O)NCc2ccc3c(c2)OCO3)ccc1F -9.49%
CCc1ccc2oc(C(=O)Nc3sc4c(c3C(=O)NC)CCCC4)cc(=O)c2c1 4.27%
COc1cccc(CNCCSc2nnnn2C)c1OCc1ccccc1F -5.53%
COc1ccc(-c2nc3ccccc3o2)cc1NC(=O)COc1ccc(C(C)(C)C)cc1 -18.3%
CCOc1ccc(S(=O)(=O)NCC(c2ccco2)S(=O)(=O)c2ccc(F)cc2)cc1 (configuration not stated) -17.3%
COc1cccc(N2CC(NC(=O)c3ccc(S(=O)(=O)N4CCCCC4)cc3)CC2=O)c1 (configuration not stated) -21.2%
CCOC(=O)c1cc2c(=O)n3ccccc3nc2n(CC2CCCO2)c1=NC(=O)c1ccc(C)cc1 (configuration not stated) -9.31%
O=[N+]([O-])c1ccc(C(c2sc3nc(-c4ccco4)nn3c2O)N2CCN(c3cccc(Cl)c3)CC2)cc1 (configuration not stated) -9.28%
Cc1ccc(C)c(Cn2nc(-c3cc(C)ccc3C)ccc2=O)c1 -14.6%
CCOC(=O)c1c(S(=O)(=O)N2CCCC(C(=O)N3CCN(c4ccccc4)CC3)C2)c(C)n(C)c1C (configuration not stated) -14.2%
Cc1ccccc1OC(=O)CSc1nnc(-c2cccs2)o1 -4.52%
COc1ccccc1NC(=O)CSc1oc(-c2cccs2)nc1S(=O)(=O)c1ccccc1 -29.7%
O=c1cc(CSc2n[nH]c(-c3ccccc3)n2)[nH]c2ccccc12 -5.78%
COc1cc(NC(=O)c2cc3c(=O)n(Cc4cccs4)ccc3nc2C)cc(OC)c1OC -12.3%
CC(Oc1ccccc1Cl)C(=O)N1CCN(CCc2ccccn2)CC1 (configuration not stated) -15.9%
N=C(N=C(N)N)N1CCOCC1 -5.34%
Cc1nnc(NCc2ccccc2)c2c1nnn2Cc1ccc(F)cc1 -17%
CCc1cccc(NC(=O)Cn2nc(-c3cc(C)ccc3C)ccc2=O)c1 -2.38%
Cc1ccc(CN2C(=O)C3(c4ccccc42)N(c2cccc(C(F)(F)F)c2)C(=O)CS3(=O)=O)cc1 (configuration not stated) -20.8%
O=C(NC1CCCCC1)c1ccc2c(c1)N(Cc1ccc(Cl)cc1)C(=O)c1ccccc1S2(=O)=O -14.9%
COc1ccc(OC)c(NC(=O)CN2C(=O)CCc3cc(S(=O)(=O)N4CCCCC4)ccc32)c1 -10%
O=C(CN1C(=O)COc2ccc(S(=O)(=O)N3CCOCC3)cc21)N1CCN(c2ccc(F)cc2)CC1 2.13%
CC(Sc1nc(=O)cc(N)n1CCc1ccccc1)C(=O)Nc1ccccc1C#N (configuration not stated) -18.2%
CCN(Cc1ccccc1)C(=O)c1cc2c(s1)-c1c(C)cccc1OC2 -6.52%
Cc1ccc(Cl)cc1NC(=O)Cn1c(=O)n(Cc2ccc(C(=O)NCc3ccc4c(c3)OCO4)cc2)c(=O)c2ccccc21 -0.952%
CC(=O)c1cccc(NS(=O)(=O)c2ccc3c(c2)NC(=O)CC(=O)N3)c1 -6.22%
COc1cccc(N2CCN(C(=O)c3cnn(-c4ccc(C)cc4C)c3C3CCN(C(=O)OC(C)(C)C)CC3)CC2)c1 -12.6%
CC(=O)N1c2c(cc(Br)cc2S(=O)(=O)N2CCN(c3cccc(Cl)c3)CC2)CC1C (configuration not stated) -2.15%
CCOc1ccc(-c2csc(/C(C#N)=C/c3ccc(Br)cc3)n2)cc1 -2.51%
CCN1CCN(c2c(S(=O)(=O)c3ccc(C)c(C)c3)cnc3ccc(F)cc23)CC1 -24%
COc1ccc(NC(=O)CSc2cc(-c3ccccc3)nc(C)n2)cc1 -1.39%
O=c1c2cnn(-c3ccc(Cl)cc3)c2ncn1Cc1cccc(C(F)(F)F)c1 -17.2%
Cc1nn(CC(=O)Nc2ccccc2F)c(=O)c2c(C)n(-c3ccc(Cl)cc3)nc12 -0.571%
Cc1ccc(-n2c(SCC(=O)Nc3cccc(C)c3)nc3c(oc4ccccc43)c2=O)cc1 -13.7%
CN1CCN(c2nc3c(S(=O)(=O)c4ccccc4)nnn3c3ccsc23)CC1 -5.26%
CCOC(=O)C1CCN(C(=O)CN2c3ccc(CC)cc3-c3ccccc3S2(=O)=O)CC1 -8.04%
Cc1nc([N+](=O)[O-])cn1-c1ccc([N+](=O)[O-])cc1 -12.7%
CCS(=O)(=O)c1ncc(N(Cc2ccc(F)cc2)Cc2ccco2)c(C(=O)Nc2cc(C)ccc2C)n1 -2.31%
CCC(=O)Nc1ccc2nc(SCCOc3ccc(C)cc3)sc2c1 -8.86%
CCCn1c(NCc2ccc(N(CC)CC)cc2)nc2ccccc21 -8.75%
CCCN(CCC)C(=O)Cn1c(=O)n(-c2ccc(OC)cc2)c(=O)c2ccc(C(=O)NCc3ccc(C)cc3)cc21 -12.8%
Cc1cc(OI)c(C(C)C)cc1-c1cc(C(C)C)c(OI)cc1C -19.9%
COc1cccc(-c2ccc3c(N)c(C(=O)Nc4cc(F)ccc4F)sc3n2)c1 -10.3%
CO[C@@H]1[C@@H](O[C@@H]2O[C@H](C)[C@@H](O[C@H]3C[C@@](C)(O)[C@@H](O)[C@H](C)O3)[C@H](N(C)C)[C@H]2O)[C@@H](CC=O)C[C@@H](C)[C@@H](O[C@@H]2CC[C@H](N(C)C)[C@@H](C)O2)/C=C/C=C/C[C@@H](C)OC(=O)C[C@H]1OC(C)=O -13.3%
CCOC(=O)C1CCCN(C(=O)c2ccc(-n3ccc4ccccc43)s2)C1 (configuration not stated) -18.1%
COc1ccc(CNC(=O)c2cc(-c3ccc(OC)cc3)nc3n[nH]c(-c4cccc([N+](=O)[O-])c4)c23)cc1 -11%
Cc1ccc(CNC(=O)C2CCN(S(=O)(=O)c3ccc(F)cc3)CC2)cc1 5.2%
CC(=O)N1CCc2c(sc3c2c(=O)n(-c2ccc(C)cc2)c(=O)n3Cc2c(F)cccc2Cl)C1 1.43%
COC(=O)c1c(NC(=O)Cc2coc3cc(C)ccc23)sc2c1CCCC2 -12.7%
COc1ccccc1CNC(=O)c1cccn1-c1nnc(N2CCCCC2)s1 -4.38%
COc1ccc(CN2CCc3c(c(=O)n4ncc(C(=O)N5CCN(c6ccc(F)cc6)CC5)c4n3C)C2)cc1 -28.9%
COc1ccc(-c2cc(C)no2)cc1S(=O)(=O)NCc1cccs1 -16.9%
CCOc1ccc(C2CC(=O)Nc3cc4c(cc32)OCO4)cc1OC (configuration not stated) -36.5%
CCc1cccc(NC(=O)CN2Cc3ccccc3C2=O)c1 -18.3%
CCOC(=O)c1c(S(=O)(=O)N2CCCC(C(=O)Nc3ccccn3)C2)c(C)n(C)c1C (configuration not stated) -15.1%
COc1cc(CNC(=O)C2CCCCN2S(=O)(=O)c2ccc(F)cc2)cc(OC)c1OC (configuration not stated) -24.5%
Cc1nc(-c2cccc(NC(=O)Nc3ccccc3C(F)(F)F)c2)no1 -6.44%
Cc1c(Cl)cccc1NC(=O)Cn1cc(C(=O)c2cccs2)c2ccccc21 -24.5%
O=C(CSc1nc2ccsc2c(=O)n1Cc1ccccc1Cl)NCc1ccc(F)cc1 -4.25%
CCc1ccc(-n2c(=O)c3sc4ccccc4c3n(CC(=O)N3CCCC3)c2=O)cc1 -6.06%
COc1cccc(C(=O)c2cn(CC(=O)NCc3ccccc3Cl)c3nc(C)ccc3c2=O)c1 -0.962%
Cc1ccc(-c2nc(CS(=O)CC(=O)N3CCN(c4cccc(Cl)c4)CC3)c(C)o2)cc1 (configuration not stated) -15.2%
CCCOc1cccc(C2c3c(oc4ccccc4c3=O)C(=O)N2c2nncs2)c1 (configuration not stated) 6.23%
Cc1ccc(C)c(Cn2c(CCCNC(=O)C3CCCCC3)nc3ccccc32)c1 -11.7%
Cc1ccc2cccc(NC(=O)COc3ccccc3Cl)c2n1 3.92%
CCc1ccc(NC(=O)CCCc2nnc3n(CC(C)C)c(=O)c4sccc4n23)cc1 -3.05%
CC(C)CN(CC(C)C)S(=O)(=O)c1ccc(C(=O)Nc2sc3c(c2C(N)=O)CC(C)(C)NC3(C)C)cc1 -27.6%
O=C(Nc1c2c(nn1-c1ccc(Cl)cc1)CS(=O)(=O)C2)c1cccc(F)c1 -25.2%
CC(=O)Nc1ccc(S(=O)(=O)NCCc2cn3ccsc3n2)cc1 -19%
Cc1nnc(NC(=O)CSc2nccn2Cc2ccc(F)cc2)s1 -16.8%
CCOc1ccccc1NC(=O)c1c(NCc2cccs2)sc2c1CCC(C)C2 (configuration not stated) -14.9%
O=C(CSc1nc(-c2cccc(F)c2)[nH]c1-c1ccccc1)Nc1ccc2c(c1)OCCO2 -30.3%
CCC(=O)N1CCc2cc(OC)c(OC)cc2C1COc1ccccc1OC (configuration not stated) -19.4%
Cc1cccc(OCc2ccc(-c3nc(C#N)c(NCc4cccnc4)o3)o2)c1 -8.39%
COc1ccc(-c2nc(CNS(=O)(=O)c3ccc(Br)cc3)cs2)cc1 -17%
COC(=O)c1ccc(C2c3c(-c4ccccc4O)n[nH]c3C(=O)N2Cc2ccncc2)cc1 (configuration not stated) -14.1%
CC(C)c1nn2c(=O)cc(COC(=O)c3ccccc3NC(=O)COc3ccccc3)nc2s1 -17%
Cc1ccc(CN2COc3ccc4c(-c5ccccc5)cc(=O)oc4c3C2)cc1 -18.3%
Cc1c(C(=O)Nc2cccc(Cl)c2)oc2ccc(S(=O)(=O)N3CCCCCC3)cc12 -21.7%
Cc1cc(C)nc(-n2nc(C)c3c2N(C)C(=O)CC3c2ccc(Cl)cc2)n1 (configuration not stated) -10.1%
O=C(NCc1ccccc1)C(=O)Nc1ccc2nc3n(c(=O)c2c1)CCCCC3 -11.3%
COc1ccccc1NC(=O)CN1C(=O)C2(SCC(=O)N2c2ccc(F)c(F)c2)c2ccccc21 (configuration not stated) -25.6%
Cc1nnc(NC(=O)c2nc(SCc3ccccc3F)ncc2Cl)s1 -14.1%
CCc1cc(C(=O)NCc2ccccc2)no1 -15%
COc1cc(NC(=O)CSc2nc(-c3ccco3)cc(C(F)(F)F)n2)cc(OC)c1OC -16.5%
CCCOc1ccc(C(=O)Nc2ccc(NC(=O)c3ccccc3)c(Br)c2)cc1 -20.5%
CC(NC(=O)Cc1ccc(NC(=O)N2CCSc3ncccc32)cc1)c1ccccc1 (configuration not stated) -13.4%
Cc1cc(-c2ccc(S(=O)(=O)Nc3ccccc3F)s2)on1 11.9%
Cn1c(-n2cccc2)c(-c2c(-c3ccccc3)[nH]c3c2c(=O)[nH]c(=O)n3C)c(=O)[nH]c1=O -7.18%
Cc1ccc2c(c1)N(CC(=O)NCCc1ccc(Cl)cc1)C(=O)c1cccnc1O2 0.488%
O=C(Nc1cccc(-c2cn3cccnc3n2)c1)c1cc(Br)ccc1Cl -16.9%
O=C(CN1C(=O)COc2ccc(S(=O)(=O)NC3CCCC3)cc21)Nc1ccc(Cl)cc1 -5.58%
